Scores with a large standard error are left out. Not listed are two conditions whose scores span a narrow range. In variant names, del marks residues removed and ins residues inserted between the two positions. For some of these results: The data file names ogerin without a concentration.
B1: GPR68, Q15743 (parent)
chain: MGNITADNSSMSCTIDHTIHQTLAPVVYVTVLVVGFPANCLSLYFGYLQIKARNELGVYLCNLTVADLFYICSLPFWLQYVLQHDNWSHGDLSCQVCGILLYENIYISVGFLCCISVDRYLAVAHPFRFHQFRTLKAAVGVSVVIWAKELLTSIYFLMHEEVIEDENQHRVCFEHYPIQAWQRAINYYRFLVGFLFPICLLLASYQGILRAVRRSHGTQKSRKDQIQRLVLSTVVIFLACFLPYHVLLLVRSVWEASCDFAKGVFNAYHFSLLLTSFNCVADPVLYCFVSETTHRDLARLRGACLAFLTCSRTGRAREAYPLGAPEASGKSGAQGEEPELLTKLHPAFQTPNSPGSGGFPTGRLA

Legend:
[1] = variants of: B1; assay: cAMP reporter score (Enrich2 score, wild type = 0); higher = more signal; HEK293T, FACS bins
[2] = variants of: B1; assay: surface expression score (Enrich2 score, wild type = 0); higher = more signal; HEK293T, FACS bins

Variant	cAMP reporter score ([1]; pH 5.5)	cAMP reporter score ([1]; pH 6)	cAMP reporter score ([1]; pH 6, modulator: ogerin)	cAMP reporter score ([1]; pH 6.5, modulator: ogerin)	surface expression score [2]
T292_H294del	-1.64	-0.641	-1.58	-1.44	0.227
H294_D296del	0.242	-0.501	0.775	-1.03	-0.412
R295A	0.572	-0.841	0.506	-0.103	1.42
R295C	0.647	-0.593	0.081	-0.762	1.31
R295D	0.629	–	0.685	-0.558	0.632
R295E	0.367	0.38	1.38	1.18	1.5
R295F	-0.081	-1.01	-0.567	-1.2	1.2
R295G	-0.435	-0.211	-0.527	-1.15	0.597
R295H	-0.447	-0.138	0.243	-0.516	0.619
R295I	-0.175	-1.11	-0.396	-0.695	0.458
R295K	-0.484	-0.259	-0.525	-0.359	0.269
R295L	0.451	-1.19	-0.158	-0.535	0.748
R295M	-0.214	-0.273	-0.619	-0.131	0.459
R295N	0.958	-0.003	1.03	0.395	0.955
R295P	-0.456	-1	-0.291	-1.49	0.079
R295Q	0.335	-1.01	0.709	-0.646	2.12

Variant	cAMP reporter score ([1]; pH 5.5)	cAMP reporter score ([1]; pH 6)	cAMP reporter score ([1]; pH 6, modulator: ogerin)	cAMP reporter score ([1]; pH 6.5, modulator: ogerin)	surface expression score [2]
R295S	-0.354	-0.422	-0.574	-0.585	-0.292
R295V	-0.055	–	0.271	0.11	2.2
R295W	-0.196	-0.885	-1.11	-1.17	0.75
R295Y	0.471	-0.479	-0.22	-0.409	0.653
R295_D296insGSG	-0.559	-0.49	-0.765	-0.891	0.475
R295_L297del	-0.129	–	-0.236	0.341	-1.04
R295del	-1.07	-1.1	-0.816	-1.21	0.493
D296del	-0.749	-0.072	-1.12	0.749	-0.367
L297A	0.343	-0.477	0.399	0.095	0.206
L297C	-0.028	-0.11	-0.33	-0.914	0.024
L297D	-1.83	-1.12	-1.45	-1.5	-0.067
L297E	-0.697	-0.273	-1.12	-1.21	-1.21
L297F	-0.233	-0.43	-0.194	-0.186	0.234
L297G	1.01	–	0.607	-0.606	0.435
L297H	-1.08	-0.454	-1.86	-1.23	-0.309

Reference: the GPR68 mutational scans of Howard et al. (2025)
